Results taken from article PMC10668032.
The other results are listed elsewhere or left out. At the low end of the ranking the order means little.

The sequences below were run against SIX1-Q177R homeodomain (UniProt Q15475) (assay: universal protein binding microarray). Conditions: Universal all-10-mer PBM (8x60K, AMADID 030236), 300 nM GST-tagged protein, Alexa Fluor 488 anti-GST; buffer, salt, pH and temperature not stated; high values mean tight binding; most listed sequences are background and not binding sites; double strand, one strand shown.

Row | Sequence | binding signal
1 | ATCCACCA | -0.0248 E-score
2 | GGTAGCCA | -0.0624 E-score
3 | GGTTATAA | -0.113 E-score
4 | CAGGAATG | -0.0712 E-score
5 | ATGCCAAT | -0.0711 E-score
6 | AGAAAGTA | -0.116 E-score
7 | CCAGGACG | 0.00799 E-score
8 | ACGTCGCG | 0.00292 E-score
9 | AAACCCCG | 0.231 E-score
10 | CCCTCAGC | 0.0894 E-score
11 | AACTGAGC | -0.00895 E-score
12 | CCTCTCCG | -0.0794 E-score
13 | ACGACCCC | 0.244 E-score
14 | GAGAGGAC | -0.0713 E-score
15 | GGCGACGA | -0.033 E-score
16 | AGGCTCTC | -0.08 E-score
17 | ATCCCTTG | -0.0196 E-score
18 | AGGTATTC | -0.00521 E-score
19 | CCCCCGCC | 0.228 E-score
20 | CAGGCCCA | -0.206 E-score
21 | CATAGGAC | 0.035 E-score
22 | CTTTTGAA | -0.163 E-score
23 | AATGTGGG | -0.00835 E-score
24 | CTCTTGGC | -0.00764 E-score
25 | AGGTATTG | -0.0818 E-score

Row | Sequence | binding signal
26 | GCAGGAGC | 0.00311 E-score
27 | ATTGTCGC | -0.249 E-score
28 | TATTACAA | -0.161 E-score
29 | CACGGATC | 0.279 E-score
30 | CCGTTAAA | -0.12 E-score
31 | AAGGTACG | 0.0373 E-score
32 | CTTTAAAC | -0.155 E-score
33 | CATCAAGA | -0.152 E-score
34 | AAACGTAC | -0.0873 E-score
35 | ATTTCCAA | -0.0754 E-score
36 | GCTAACTA | 0.013 E-score
37 | ATCACGTC | 0.0297 E-score
38 | ACCGACAT | -0.00993 E-score
39 | CTACAGTA | 0.0353 E-score
40 | CGCAATAC | 0.276 E-score
41 | GAGGGCGC | -0.0432 E-score
42 | ATGATATG | -0.169 E-score
43 | CGTCCACA | -0.0724 E-score
44 | TAAGTCTA | 0.00543 E-score
45 | CGAGCGTC | -0.0964 E-score
46 | AGATTCCC | -0.113 E-score
47 | ACATTGCA | -0.0254 E-score
48 | AGCCGCGG | 0.0295 E-score
49 | AAAATTGT | 0.0432 E-score
50 | AATGTAGG | -0.0761 E-score

Row | Sequence | binding signal
51 | AATAACGA | -0.0269 E-score
52 | TACAGGTA | -0.137 E-score
53 | CGCTTTAC | -0.107 E-score
54 | AATCAGGT | -0.183 E-score
55 | CACATCCA | -0.13 E-score
56 | CTCGTGTA | 0.398 E-score
57 | ACCGCTCA | -0.189 E-score
58 | CGTATGGA | -0.114 E-score
59 | TACCCCTA | 0.229 E-score
60 | CCAACTCC | 0.0846 E-score
61 | GGGAGGGA | 0.0853 E-score
62 | CTTCGTCC | -0.117 E-score
63 | AGCTCGAA | -0.258 E-score
64 | AGAGTCAC | 0.111 E-score
65 | CCTGAACC | 0.134 E-score
66 | ATAGCACG | 0.157 E-score
67 | CCCGCGCA | 0.176 E-score
68 | GTCTTAAC | 0.129 E-score
69 | TAATGCAA | -0.174 E-score
70 | ATGCACGA | 0.0693 E-score
71 | ATCCCAAA | -0.198 E-score
72 | CCAAGTCG | 0.0759 E-score
73 | AGGCTCAA | -0.271 E-score
74 | ATAGAAAA | -0.0679 E-score
75 | AATCCGCG | -0.0557 E-score

Row | Sequence | binding signal
76 | ACCTTCAA | -0.137 E-score
77 | CCTCAAGG | -0.0906 E-score
78 | CCCACTTC | 0.0304 E-score
79 | CGAGTGAG | 0.13 E-score
80 | GAGGGCAC | 0.00566 E-score
81 | ATTGCCAG | 0.00609 E-score
82 | CCACACTC | 0.308 E-score
83 | CACGCGTA | 0.184 E-score
84 | GACTGAGC | -0.178 E-score
85 | ATGGTAAT | -0.0901 E-score
86 | CGAGGAAA | -0.0731 E-score
87 | ATCATGGA | 0.00887 E-score
88 | TCGACGCA | -0.00609 E-score
89 | CAGCGAAA | -0.0825 E-score
90 | GCCAGCAA | -0.163 E-score
91 | GCCCGATA | 0.142 E-score
92 | GGTCCTAC | -0.0757 E-score
93 | CGAACTAC | -0.0698 E-score
94 | AAATCTTG | -0.257 E-score
95 | AATTTAAG | -0.174 E-score
96 | GTTAGAAA | 0.0144 E-score
97 | ACCATACT | 0.0472 E-score
98 | AGCTCGCA | -0.17 E-score
99 | CGGCCCGA | -0.0203 E-score
100 | ACTCGCAA | 0.0208 E-score

Row | Sequence | binding signal
101 | AACATGTG | 0.0316 E-score
102 | GCAACAGC | -0.237 E-score
103 | CAATGGTG | 0.299 E-score
104 | CGTGTTTA | 0.346 E-score
105 | TAATCTCA | -0.248 E-score
106 | AGGTATAG | -0.124 E-score
107 | TCCCTACA | 0.108 E-score
108 | CTCCCCTA | 0.159 E-score
109 | GCCCGGAC | 0.131 E-score
110 | CATGGGTC | 0.0693 E-score
111 | CCGACATA | 0.0627 E-score
112 | ATGCGTTG | -0.0271 E-score
113 | GTGATGTA | 0.0603 E-score
114 | AACTGGTC | -0.119 E-score
115 | GTAGTAAA | 0.0464 E-score
116 | CAATTCAA | -0.0718 E-score
117 | GTCGGCAA | -0.0898 E-score
118 | TTAAGGAA | -0.129 E-score
119 | AGTTTGCA | -0.106 E-score
120 | ACCTCTGG | 0.0399 E-score
121 | AGTGTAAT | 0.413 E-score
122 | AGTACCTG | 0.0113 E-score
123 | CCCCAGCG | 0.0766 E-score
124 | ACTATGTC | -0.126 E-score
125 | GCACCTGA | 0.0656 E-score

Row | Sequence | binding signal
126 | ACTTCGCG | -0.104 E-score
127 | CGAGAAAA | -0.306 E-score
128 | TACTTAAA | -0.0659 E-score
129 | CCCAATGA | 0.0235 E-score
130 | GGCGCGAC | -0.0141 E-score
131 | ACGACCGA | 0.0274 E-score
132 | TACCACAA | -0.0323 E-score
133 | TCAGATCA | -0.121 E-score
134 | GGGTGCTA | 0.217 E-score
135 | ACCTCCTG | 0.108 E-score
136 | GCGAGTAC | 0.175 E-score
137 | TAACCGCA | 0.029 E-score
138 | GACATCCC | -0.166 E-score
139 | AGCGTTGA | 0.019 E-score
140 | GTCAGAAC | 0.0509 E-score
141 | CCAGTACG | -0.161 E-score
142 | GTGTAGGA | 0.4 E-score
143 | AGACCGCA | -0.217 E-score
144 | GCGAAAGC | -0.161 E-score
145 | AATTCGCA | -0.0928 E-score
146 | GTATGGAA | -0.232 E-score
147 | CATATACC | 0.138 E-score
148 | AAGTGCAA | -0.171 E-score
149 | ACGTAGAT | -0.286 E-score
150 | GTACGTTA | -0.0065 E-score

Row | Sequence | binding signal
151 | GAATGTTA | -0.169 E-score
152 | CATCCAGA | 0.131 E-score
153 | CGTCAGAG | 0.058 E-score
154 | CGAACCTC | 0.0976 E-score
155 | AGGTCAAC | -0.242 E-score
156 | AAGACGCT | -0.163 E-score
157 | TGAACGAA | -0.233 E-score
158 | AGCAGGCT | -0.121 E-score
159 | ATTCTACA | 0.181 E-score
160 | ATGACTTA | -0.365 E-score
161 | ATGGAAGG | -0.102 E-score
162 | GATCGTAA | -0.121 E-score
163 | ATAGACCG | -0.0648 E-score
164 | AGCGGCAG | -0.282 E-score
165 | ATTCACCA | -0.273 E-score
166 | CTACGGAG | -0.184 E-score
167 | CGCAGATC | 0.0189 E-score
168 | ATGTTAAC | 0.00543 E-score
169 | GCGTCTAA | -0.11 E-score
170 | ATGAGTTA | -0.225 E-score
171 | AAACTTGT | -0.277 E-score
172 | ATAGGTTC | -0.104 E-score
